Out of some 46,000 compounds screened, about 60 (0.1%) were called active. Roughly 3% stayed inconclusive and do not appear here. Calls follow the shape of the dose curve; as a rule, active = well fitted inhibition curve with a large enough effect; inconclusive = small, poorly fitted or top-dose-only effect; inactive = no such curve, though single readings can be large or run the other way. This is one part of the list.
Test: Primary qHTS assay for Inhibitors of ovarian cancer metastasis using an organotypic tumor microenvironment (TME) model. Also: nearly all actives have a fitted effect of over 65% in size.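 As to activity change, negative = inhibition: plate controls were DMSO wells for no effect and tomatine positive control wells for full effect.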
Details: SKOV3ip1-GFP adhesion/invasion on 3D omental model, fluorescence; series mostly up to 45.8 µM; activity change, negative = inhibition: at the top concentration
Outline: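 qHTS, 4-pt dose (0.36-46 umol/L); SKOV3ip1-GFP, 1,200 cells/well, no FBS; primary omental fibroblast/mesothelial co-culture 48 h pre-grown; 2 h RT + 16 h 37 C; PBS wash, 4% PFA; GFP count 488/509 nm.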

Activity change, negative = inhibition, inactive:
CCOc1ccc(S(=O)(=O)c2cn(Cc3ccc(C)cc3)c3ccc(OC)cc3c2=O)cc1 -4.29%
Cc1ccc(Cl)cc1N1CCN(C(=O)c2cn(C)c3ccc(S(=O)(=O)N4CCC(C)CC4)cc3c2=O)CC1 -5.31%
COc1ccc(NCc2nc3ccccc3n2CCOc2ccc(C)cc2)cc1 -12.9%
CCCOc1ccc(C(=O)N(Cc2cccs2)C2CCS(=O)(=O)C2)cc1 (configuration not stated) 14.8%
O=C(NCC(c1ccc(Cl)cc1)N1CCCCC1)c1ccccc1 (configuration not stated) 7.17%
CCN(CC)c1ccc(C(=O)N2CCC(c3ccncc3)CC2)cc1 -11.3%
O=C(Nc1nc2ccc(Cl)cc2s1)c1ccc(S(=O)(=O)N2CCCC2)cc1 1.96%
CCOc1cccc(C2c3[nH]c4ccccc4c3CCN2C(=O)CCc2ccccc2)c1 (configuration not stated) 6.35%
Cc1cccc(NC(=O)C2CCCN(c3nnc(-n4c(C)ccc4C)s3)C2)c1C (configuration not stated) -21.2%
CCOC(=O)c1nc(Nc2ccccc2C)c2ccccc2n1 0.159%
O=C(NCc1noc2ccccc12)Nc1ccc(F)cc1F -15.3%
CCc1ccc(S(=O)(=O)c2cn(C)c3cc(OC)c(OC)cc3c2=O)cc1 -1.59%
CC(C)c1ccc(NC(=O)CN2C(=O)c3cccc4cccc2c34)cc1 -6.82%
CCCN(C(=O)Cn1c(=O)oc2cc(Cl)ccc21)c1ccc(C(C)C)cc1 3.06%
CC1CC2C3CCC4=CC(=O)C=C[C@]4(C)[C@@]3(F)[C@@H](O)C[C@]2(C)[C@@]1(O)C(=O)CO (some centres not stated) 25.6%
COc1ccc(C)cc1NC(=O)CN1C(=O)COc2ccc(S(=O)(=O)N3CCCCCC3)cc21 6.87%
CCOC(=O)C1CCCN(C(=O)c2ccc3c(c2)N(Cc2cccc(Cl)c2)C(=O)c2ccccc2S3(=O)=O)C1 (configuration not stated) 7.11%
CCOC(=O)c1ccc(Nc2nc(C(=O)OCC)nc3ccccc23)cc1 -0.921%
O=C(CN1C(=O)COc2ccc(S(=O)(=O)N3CCCCC3)cc21)NCc1ccccc1Cl -2.4%
Cc1cc(Nc2cc(Cl)ccc2C)n2nc(Cc3ccccc3)nc2n1 -4.92%
Cc1ccc(C)c(CN2C(=O)c3ccccc3S(=O)(=O)c3ccc(C(=O)N4CCN(C)CC4)cc32)c1 -2.2%
Cc1cc(C)c(S(=O)(=O)NCC(c2ccc(N(C)C)cc2)N2CCc3ccccc32)c(C)c1 (configuration not stated) -8.28%
COc1ccc(CNC(=O)Cc2coc3ccc(C(C)C)cc23)cc1 5.42%
CCOc1ccccc1CNC(=O)CSc1n[nH]c(-c2ccccc2Cl)n1 -9.88%
COc1ccc(-c2nnc(SCC(=O)Oc3cccc(C)c3C)o2)cc1 -8.54%

outcome, inactive:
CCN(CC)S(=O)(=O)c1ccc2nc(NC(=O)c3ccc(Br)o3)sc2c1
CCC1CCc2c(sc(NC(=O)C3c4ccccc4Oc4ccccc43)c2C#N)C1 (configuration not stated)
